Assays:
[1] = molecular target: T1, FXI in standard human plasma (human, UniProt P03951); assay: cell-based or functional assay
[2] = molecular target: T1, FXI in standard human plasma; assay: cell-based or functional assay; remark: listed apart in the source
FXI in cynomolgus plasma = FXI in cynomolgus plasma (cynomolgus); assay: cell-based or functional assay
FXI in rabbit plasma [3] = molecular target: FXI in rabbit plasma (rabbit); assay: cell-based or functional assay
FXI in rat plasma = FXI in rat plasma (rat); assay: cell-based or functional assay
[4] = molecular target: T1, FXI in standard human plasma; assay: cell-based or functional assay; remark: listed apart in the source
FXI in monkey plasma = FXI in monkey plasma (monkey); assay: cell-based or functional assay
FXI in rabbit plasma [5] = molecular target: FXI in rabbit plasma (rabbit); assay: cell-based or functional assay; remark: listed apart in the source
human FXIa = molecular target: T2, human FXIa (human, UniProt P03951 part only; P03951 part only); assay: BLI, KN060 on Protein A biosensor, hFXIa 400-25 nM, 1:1 model
T2 construct: also called hFXIa

hFXI-CHis protein = molecular target: T3, hFXI-CHis protein (human, UniProt P03951); assay: BLI, KN060 on Protein A biosensor, hFXI-Chis 50-3.125 nM, 1:1 model
T3 construct: FXI is said in the background to be a dimer; nothing is said of the construct; also called human FXI; human FXI factor protein; not shown: C-terminal His tag (CHis)

rabFXI-Apple-Chis = molecular target: T4, rabFXI-Apple-Chis (rabbit); assay: BLI, KN060 on Protein A biosensor, rabFXI-Apple-Chis 50-3.125 nM, 1:1 model
T4 construct: domain: Apple; also called rabbit FXI-apple protein; rabbit FXI

cynoFXI-Apple-Chis = molecular target: T5, cynoFXI-Apple-Chis (cynomolgus); assay: BLI, KN060 on Protein A biosensor, cynoFXI-Apple-Chis 50-3.125 nM, 1:1 model
T5 construct: domain: Apple; also called cynomolgus FXI-apple protein; cynomolgus FXI

hApple-Chis = molecular target: T6, hApple-Chis (human, UniProt P03951 part only); assay: BLI (Octet K2), KN060 captured on the biosensor, hApple-Chis at 5 concentrations, 1:1 model
T6 construct: range 1-387; also called hApple-Chis protein; human Apple domain; not shown: C-terminal His tag (Chis)

- IC50 value (ng/mL) of the inhibitory effect on FXI activity [1]: 650 ng/mL
- APTT ratio in standard human plasma at 0.1 µg/mL [2]: 1 ratio
- APTT ratio in standard human plasma at 0.5 µg/mL [2]: 1.12 ratio
- APTT ratio in standard human plasma at 1 µg/mL [2]: 1.3 ratio
- APTT ratio in standard human plasma at 2 µg/mL [2]: 2.19 ratio
- APTT ratio in standard human plasma at 5 µg/mL [2]: 3.53 ratio
- APTT ratio in standard human plasma at 10 µg/mL [2]: 3.71 ratio
- APTT ratio in cynomolgus plasma at 0.1 µg/mL (FXI in cynomolgus plasma): 1 ratio
- APTT ratio in cynomolgus plasma at 0.5 µg/mL (FXI in cynomolgus plasma): 1.13 ratio
- APTT ratio in cynomolgus plasma at 1 µg/mL (FXI in cynomolgus plasma): 1.36 ratio
- APTT ratio in cynomolgus plasma at 2 µg/mL (FXI in cynomolgus plasma): 2.73 ratio
- APTT ratio in cynomolgus plasma at 5 µg/mL (FXI in cynomolgus plasma): 3.3 ratio
- APTT ratio in cynomolgus plasma at 10 µg/mL (FXI in cynomolgus plasma): 3.38 ratio
- APTT ratio in rabbit plasma at 0.1 µg/mL (FXI in rabbit plasma [3]): 0.83 ratio
- APTT ratio in rabbit plasma at 0.5 µg/mL (FXI in rabbit plasma [3]): 0.88 ratio
- APTT ratio in rabbit plasma at 1 µg/mL (FXI in rabbit plasma [3]): 0.93 ratio
- APTT ratio in rabbit plasma at 2 µg/mL (FXI in rabbit plasma [3]): 1.28 ratio
- APTT ratio in rabbit plasma at 5 µg/mL (FXI in rabbit plasma [3]): 1.91 ratio
- APTT ratio in rabbit plasma at 10 µg/mL (FXI in rabbit plasma [3]): 1.96 ratio
- APTT ratio in rat plasma at 0.5 µg/mL (FXI in rat plasma): 0.94 ratio
- APTT ratio in rat plasma at 1 µg/mL (FXI in rat plasma): 0.97 ratio
- APTT ratio in rat plasma at 2 µg/mL (FXI in rat plasma): 1.07 ratio
- APTT ratio in rat plasma at 5 µg/mL (FXI in rat plasma): 1.55 ratio
- APTT ratio in rat plasma at 10 µg/mL (FXI in rat plasma): 1.67 ratio
- APTT ratio in rat plasma at 30 µg/mL (FXI in rat plasma): 1.76 ratio
- whole blood APTT in standard human plasma at 0.1 µg/mL [4]: 22.9
- whole blood APTT in standard human plasma at 0.5 µg/mL [4]: 25.8
- whole blood APTT in standard human plasma at 1 µg/mL [4]: 30
- whole blood APTT in standard human plasma at 2 µg/mL [4]: 50.4
- whole blood APTT in standard human plasma at 5 µg/mL [4]: 81.1
- whole blood APTT in monkey plasma at 0.1 µg/mL (FXI in monkey plasma): 20.8
- whole blood APTT in monkey plasma at 0.5 µg/mL (FXI in monkey plasma): 23.6
- whole blood APTT in monkey plasma at 1 µg/mL (FXI in monkey plasma): 28.5
- whole blood APTT in monkey plasma at 2 µg/mL (FXI in monkey plasma): 57
- whole blood APTT in monkey plasma at 5 µg/mL (FXI in monkey plasma): 69
- whole blood APTT in rabbit plasma at 0.1 µg/mL (FXI in rabbit plasma [5]): 15.3
- whole blood APTT in rabbit plasma at 0.5 µg/mL (FXI in rabbit plasma [5]): 16.2
- whole blood APTT in rabbit plasma at 1 µg/mL (FXI in rabbit plasma [5]): 17.1
- whole blood APTT in rabbit plasma at 2 µg/mL (FXI in rabbit plasma [5]): 23.6
- whole blood APTT in rabbit plasma at 5 µg/mL (FXI in rabbit plasma [5]): 35.1
- whole blood APTT in rabbit plasma at 10 µg/mL (FXI in rabbit plasma [5]): 36.1
- Kd (human FXIa): 1.88 nM
- koff (human FXIa): 0.00015 s⁻¹
- kon (human FXIa): 80100 M⁻¹ s⁻¹
- Kd (hFXI-CHis protein): 0.674 nM
- Kd (rabFXI-Apple-Chis): 0.183 nM
- koff (rabFXI-Apple-Chis): 5.82e-05 s⁻¹
- kon (rabFXI-Apple-Chis): 317000 M⁻¹ s⁻¹
- koff (cynoFXI-Apple-Chis): 4.82e-08 s⁻¹
- kon (cynoFXI-Apple-Chis): 318000 M⁻¹ s⁻¹
- Kd (hApple-Chis): < 0.001 nM
B1: KN060 (bispecific antibody)
chain: QVQLVESGGGSVQAGGSLRLSCAASGHTYSSNYCMAWFRQAPGKEREGVAAIYSDGSTSYADSVKGRFTISKDNSKNTLYLQMNSLRAEDTAVYYCAATAYEGSWTGKQPLCLLYEYTYWGQGTLVTVSSGAPQVQLVESGGGSVQAGGSLRLSCTASEFTFDDSDMAWYRQAPGNECELVSTITSDGGTYYADSVKGRFTISQDNSKNTMYLQMNSLRAEDTAVYYCAADQWGSAEGDCTSSYPGGYWGQGTLVTVSSGS[… human IgG1 Fc with changes …]
notes: also called anti-FXI bispecific single-domain antibody fusion protein; KN060 stock solution 201113DS

From patent US20250034277A1 (SUZHOU ALPHAMAB, published 2025)
